Measurements as given in patent US20070128190A1.

Molecular target: human platelet α2β1 integrin (immobilized on microtiter plates) (human) (UniProt P17301)
Test: competition with Eu-TMC-2206 on platelet α2β1-coated plates, biphasic

Chain of UniProt P17301 (P17301 30-1181 E534K limits assumed, chain 1 of 2): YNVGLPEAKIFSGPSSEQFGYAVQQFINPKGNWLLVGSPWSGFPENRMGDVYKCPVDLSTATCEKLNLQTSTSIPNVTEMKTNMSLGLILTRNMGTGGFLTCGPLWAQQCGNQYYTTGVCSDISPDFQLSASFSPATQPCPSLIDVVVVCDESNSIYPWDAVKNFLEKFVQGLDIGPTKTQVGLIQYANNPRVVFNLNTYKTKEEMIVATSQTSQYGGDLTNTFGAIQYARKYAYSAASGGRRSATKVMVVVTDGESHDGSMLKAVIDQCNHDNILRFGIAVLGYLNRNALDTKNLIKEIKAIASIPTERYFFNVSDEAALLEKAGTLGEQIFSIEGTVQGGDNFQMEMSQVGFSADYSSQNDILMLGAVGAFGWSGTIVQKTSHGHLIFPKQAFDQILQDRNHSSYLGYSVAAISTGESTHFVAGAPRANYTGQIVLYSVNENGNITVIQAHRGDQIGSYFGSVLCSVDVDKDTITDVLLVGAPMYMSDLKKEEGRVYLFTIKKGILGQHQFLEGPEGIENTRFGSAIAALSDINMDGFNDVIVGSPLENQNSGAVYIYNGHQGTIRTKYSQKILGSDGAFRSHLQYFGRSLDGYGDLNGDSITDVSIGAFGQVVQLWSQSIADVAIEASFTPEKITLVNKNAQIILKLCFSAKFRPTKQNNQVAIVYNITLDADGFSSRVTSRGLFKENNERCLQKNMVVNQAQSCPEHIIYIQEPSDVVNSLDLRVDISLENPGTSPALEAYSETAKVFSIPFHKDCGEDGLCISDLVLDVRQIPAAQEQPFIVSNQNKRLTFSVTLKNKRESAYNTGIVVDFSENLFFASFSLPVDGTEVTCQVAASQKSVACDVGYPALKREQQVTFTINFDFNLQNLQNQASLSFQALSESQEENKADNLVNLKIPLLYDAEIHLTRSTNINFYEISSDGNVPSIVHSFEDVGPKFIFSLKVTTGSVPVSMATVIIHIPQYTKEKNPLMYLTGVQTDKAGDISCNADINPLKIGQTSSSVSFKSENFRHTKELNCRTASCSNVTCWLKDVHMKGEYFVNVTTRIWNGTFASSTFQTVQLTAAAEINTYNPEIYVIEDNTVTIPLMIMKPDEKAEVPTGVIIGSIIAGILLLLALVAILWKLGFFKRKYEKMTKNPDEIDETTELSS
Chain of UniProt P17301 (chain, as listed by the source limits assumed, chain 2 of 2): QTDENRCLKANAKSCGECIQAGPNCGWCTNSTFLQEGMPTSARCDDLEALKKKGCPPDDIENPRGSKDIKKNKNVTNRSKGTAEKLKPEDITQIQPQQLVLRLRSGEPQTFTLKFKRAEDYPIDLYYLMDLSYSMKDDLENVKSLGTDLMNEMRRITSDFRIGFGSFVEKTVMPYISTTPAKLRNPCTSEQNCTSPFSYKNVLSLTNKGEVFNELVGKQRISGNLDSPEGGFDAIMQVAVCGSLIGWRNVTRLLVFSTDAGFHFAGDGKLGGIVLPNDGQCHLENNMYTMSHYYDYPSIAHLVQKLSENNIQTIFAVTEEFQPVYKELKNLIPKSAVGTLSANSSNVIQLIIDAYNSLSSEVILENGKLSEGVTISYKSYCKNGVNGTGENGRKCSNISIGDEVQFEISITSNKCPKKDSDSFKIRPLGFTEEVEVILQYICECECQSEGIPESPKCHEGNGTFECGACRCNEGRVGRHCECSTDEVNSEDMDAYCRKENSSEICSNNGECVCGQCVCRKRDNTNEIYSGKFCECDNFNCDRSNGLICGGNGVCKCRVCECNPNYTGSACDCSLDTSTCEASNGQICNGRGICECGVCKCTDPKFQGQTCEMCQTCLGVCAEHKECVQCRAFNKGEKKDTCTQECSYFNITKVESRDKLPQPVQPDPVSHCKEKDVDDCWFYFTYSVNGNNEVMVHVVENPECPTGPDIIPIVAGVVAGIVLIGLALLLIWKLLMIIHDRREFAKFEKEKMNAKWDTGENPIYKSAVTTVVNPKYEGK

Ki (High affinity): 0.05 nM
Ki (Low affinity): 7.7 nM
Substance: 10G11 (antibody)

Entries with a single value are a further part of the results.
